This list was built around the results that the source calls inconclusive (neither active nor inactive); the mix of calls is not that of the screen. Potencies of inconclusive entries are left out as doubtful fits. The source made the active and inactive calls. The call rests on the fitted dose curve; in most records, active means well fitted cell-killing curve with a large enough effect; inconclusive means small, poorly fitted or top-dose-only effect; inactive means no such curve, though single readings can be large or run the other way.
Legend:
[1] = qHTS of pediatric cancer cell lines to identify multiple opportunities for drug repurposing: Primary screen for Rh30 cells (AID 1347107); further: nearly all actives have a fitted effect of over 75% in size
In short: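 Viability after 48 h compound treatment at 37C, 500-1,000 cells/well, read as ATP luminescence with CellTiter-Glo. Primary screens used 11-point (MIPE, 0.78 nM-46 µM) or 8-point (NPC, 0.59 nM-46 µM) final concentrations; follow-up screens used 11-point dilutions.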

[2] = qHTS of pediatric cancer cell lines to identify multiple opportunities for drug repurposing: Primary screen for Rh41 cells (AID 1347108); further: nearly all actives have a fitted effect of over 70% in size
In short: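 Phenotypic viability qHTS, 48 h compound exposure, CellTiter-Glo luminescence read-out; multi-concentration dosing so that potency and efficacy derive directly from the primary screen's curves.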
Potency means the concentration at half of the fitted maximal effect; tags describe the fitted curve by direction and shape.

SMILES	Potency [1]	Potency [2]
CC(=O)OC1C(C)OC(Oc2c(-c3ccc(O)cc3)oc3cc(O)cc(O)c3c2=O)C(O)C1OC(C)=O (stereo unspecified)	inconclusive [cytotoxic, partial curve]	inconclusive [cytotoxic, partial curve]
CN1C(=O)C[C@H](C(=O)N[C@@H](Cc2cnc[nH]2)C(=O)N2CCC[C@@H]2C(N)=O)NC1=O	inactive	inconclusive [cytotoxic, single point]
CCCCC(C=O)NC(=O)C(CC(C)C)NC(=O)OCc1ccccc1 (stereo unspecified)	inconclusive [cytotoxic, partial curve]	inconclusive [cytotoxic, partial curve]
C=C1C(=O)OC2C=C(C)CCC=C(C)CCC12 (stereo unspecified)	inconclusive [cytotoxic, partial curve, poor fit]	inconclusive [cytotoxic, single point]
O=C(CO)N1CCC(c2[nH]nc(-c3ccc(Cl)cc3)c2-c2ccncn2)CC1	inconclusive [cytotoxic, partial curve]	inconclusive [cytotoxic, partial curve]
Cc1ccc(Nc2cc(-c3cccc(N4C(=O)c5ccccc5C4=O)c3)ncn2)cc1NS(C)(=O)=O	inconclusive [cytotoxic, partial curve]	inconclusive [cytotoxic, partial curve]
NC(=O)c1nnn(Cc2cc(Cl)c(C(=O)c3ccc(Cl)cc3)c(Cl)c2)c1N	inconclusive [cytotoxic, partial curve]	inconclusive [cytotoxic, partial curve]
C=CCc1ccc(O)c(-c2ccc(O)c(CC=C)c2)c1	inconclusive [cytotoxic, partial curve]	inconclusive [cytotoxic, partial curve]

Source: PubChem BioAssay (NCATS)
